Test results from patent US20260250325A1, “Antiviral Polypeptide Membrane Fusion Inhibitor, and Preparation Method and Application Thereof” (priority 2025, published 2026).
At least one peptide structure holds a part that was inferred or is arguable (an end, a ring closure or a residue). Where a SMILES comes first, the peptide text is derived from it. The star is where a group is joined. X1 = CC(C)CCCC(C)C1CCC2C3CC=C4CC(OC(=O)CCC(=O)*)CCC4(C)C3CCC12C

How the values were obtained:
[1] = system: RSV A2 virus strain; test: Cotton rat RSV A2 challenge protection, lung nucleic acid load by RT-qPCR; assay type: in vivo; details: cotton rats, tracheal nebulization 1 mg/kg QD for 5 days, lung collected 2 h after final administration on Day 4
Description: Female cotton rats were from Shanghai Yishang Biotechnology Co., Ltd. The RSV A2 virus strain was from the ATCC, with a catalog number VR-1540. RT-qPCR primer+probe primer were supplied by Qingke Biotechnology Co., Ltd, with batch number TSP20241227-025-00187. The RT-qPCR standard was provided by Vazyme, with batch number 20241008.
Female cotton rats (6-8 weeks old) were grouped based on body weight (n=5). All animals were intranasally challenged with RSV on Day 0 at a challenge dosage of […] pfu (50 μL) per animal. Administration began 1 h after Day 0 challenge; the polypeptide sample, positive control, and solvent control were administered via tracheal nebulization once daily for 5 consecutive days. Lung tissue was collected from all animals 2 h after the final administration on Day 4. Left lung tissue (including partial trachea) was rapidly frozen in a virus protection solution with a 10-fold volume and stored below −70° C.; and the viral titer was detected with RT-qPCR.
First, sample homogenization and lung tissue RNA extraction were performed, and the supernatant was taken from the tissue sample that was homogenized using a tissue homogenizer (maintaining a low-temperature environment). The approximately 100 μL of the homogenate supernatant was taken, and total tissue RNA was extracted by using a VeZol reagent-chloroform-water phase-magnetic bead method, and dissolved in RNase-free water. The RT-qPCR reaction system was prepared as follows: a one-step RT-qPCR reaction system was prepared by using an RNA template, a probe, a primer pair, an RT-qPCR buffer, and the RNase-free water; each sample was tested in duplicated wells, with each well containing 20 μL of the one-step RT-qPCR reaction system; a quantitative standard curve well (RSV A2 N gene full-length plasmid), a positive quality control well, and a negative quality control well were arranged at the same time. Then, amplification programs were set according to reverse transcription, pre-denaturation, and cyclic amplification, and amplification data was collected by using a real-time fluorescence quantification PCR instrument, and a mean CT value for duplicated wells was calculated. The CT value from the test results for each sample was substituted into a quantitative standard curve to calculate a copy number. A calculation formula for RSV viral load (copy number/gram of lung tissue) was: sample viral load (copy number/gram of lung tissue)=copy number/relative tissue input (g).
(§1) One hour after RSV A2 challenge in cotton rats, compounds 13, 14, 17, 19, 20, 21, 26, 27, 28, and 40 were administered via tracheal nebulization once daily for 5 consecutive days; and 2 h after the final administration, lung tissue was collected from all groups for viral titer detection, and results were shown in Table 4.

[2] = system: RSV A2 virus strain; test: Mouse RSV A2 challenge protection, lung viral titer by plaque method; assay type: in vivo, BALB/c mice; details: BALB/c mice, tracheal nebulization 1 mg/kg QD for 5 days, lung collected 2 h after final administration on Day 4
Procedure: Female BALB/c mice were from Shanghai Yishang Biotechnology Co., Ltd. HEp- 2 were from the ATCC, with a catalog number CCL-23. The cells were cultured in a DMEM medium solution in which 10% (v/v) fetal bovine serum and 1% penicillin and streptomycin were added. The RSV A2 virus strain was from the ATCC, with a catalog number VR-1540.
Eight-week-old female BALB/c mice were grouped based on body weight (n=6). All animals were intranasally challenged with RSV on Day 0 at a challenge dosage of 1×10^6 pfu (20 μL) per animal. Administration began 1 h after Day 0 challenge; the polypeptide sample, positive control, and solvent control were administered via tracheal nebulization once daily for 5 consecutive days (see Table 3 below for administration dosage and administration frequency). Lung tissue was collected from all animals 2 h after the final administration on Day 4; left lung tissue was rapidly frozen in a virus protection solution with a 10-fold volume and stored below −70° C.; and a viral titer was detected by using a plaque method.
For analysis, the lung RSV A2 virus was determined by performing a tissue homogenate viral load plaque method. In short, on the day prior to sample detection, the HEp-2 cells were inoculated into a 12-well plate (spreading density being 0.3×10^6 cells/mL, with 1000 μL of cell suspension per well) according to a standard HEp-2 cell culture operation procedure. On the day of incubation, the supernatant was taken from the tissue sample that was homogenized using a tissue homogenizer (maintaining a low-temperature environment), and the supernatant was taken after centrifugation. The tissue homogenate sample was diluted with serum-free DMEM, and inoculated into a 12-well plate at a final volume of 400 μL. After 2 h of incubation, the homogenate supernatant was discarded, and 1.5 mL of a covering layer (cell culture medium containing 1% soft agar) was added to each well and cultured in the incubator for approximately 72 h. The covering layer was discarded, the cells were fixed, blocking was performed by using a blocking solution, dyeing was performed with HRP-RSVG, development and air drying were terminated with pure water. Colored spots on the well plate were counted by using a fluorescent (enzyme-linked) immunoassay spot analyzer, and the viral titer was expressed as a plaque-forming unit per gram of tissue (PFU/g). The viral titer was calculated as an arithmetic mean±standard error of all animals in a group.
as §1, with “mice,” for “cotton rats,”, “plaque” for “titer”, “3.” for “4.”

Row | SMILES | Nucleic acid load RT-qPCR detection results Log10 mean (copy number/gram of lung tissue) [1] | Mean (PFU/g lung) [2] [PFU/g lung]
1 | CC[C@H](C)[C@H](NC(=O)[C@H](Cc1ccccc1)NC(=O)[C@H](CCCCN)NC(=O)[C@H](CC(C)C)NC(=O)[C@H](CO)NC(=O)[C@H](CCC(N)=O)NC(=O)[C@H](CCC(=O)O)NC(=O)[C@@H](NC(=O)[C@H](CCCCN)NC(=O)[C@H](CCCCN)NC(=O)[C@H](CC(N)=O)NC(=O)[C@@H](NC(=O)[C@H](CCC(N)=O)NC(=O)[C@H](CCC(=O)O)NC(=O)[C@H](CC(C)C)NC(=O)[C@H](CO)NC(C)=O)C(C)C)[C@@H](C)CC)C(=O)N[C@@H](CCC(=O)O)C(=O)N[C@@H](CCCCN)C(=O)N[C@@H](CO)C(=O)N[C@@H](CC(=O)O)C(=O)N[C@@H](CCCCN)C(=O)N[C@@H](CC(C)C)C(=O)N[C@@H](CC(C)C)C(=O)N[C@@H](CCC(=O)O)C(=O)N[C@@H](CC(N)=O)C(=O)NCC(=O)N[C@@H](CO)C(=O)NCC(=O)N[C@@H](CO)C(=O)NCC(=O)N[C@@H](CCCCNC(=O)CCC(=O)OC1CCC2(C)C(=CCC3C2CCC2(C)C(C(C)CCCC(C)C)CCC32)C1)C(N)=O (stereo partly shown) [Positive polypeptide 1, reference compound] (Ac-SLEQVNKKIEQSLKFIEKSDKLLENGSGSGK(X1)-NH2) | 9.98 Log10 copy number/gram of lung | 13568
2 | CC[C@H](C)[C@H](NC(C)=O)C(=O)N[C@@H](CCC(=O)O)C(=O)N[C@@H](CCC(N)=O)C(=O)N[C@H](C(=O)N[C@@H](CC(N)=O)C(=O)N[C@@H](CCCCN)C(=O)N[C@@H](CCCCN)C(=O)N[C@H](C(=O)N[C@@H](CCC(=O)O)C(=O)N[C@@H](CCC(N)=O)C(=O)N[C@@H](CO)C(=O)N[C@@H](CC(C)C)C(=O)N[C@@H](CCCCN)C(=O)N[C@@H](Cc1ccccc1)C(=O)N[C@H](C(=O)N[C@@H](CCC(=O)O)C(=O)N[C@@H](CCCCN)C(=O)N[C@@H](CO)C(=O)N[C@@H](CC(=O)O)C(=O)N[C@@H](CCCCN)C(=O)N[C@@H](CC(C)C)C(=O)N[C@@H](CC(C)C)C(=O)N[C@@H](CCC(=O)O)C(=O)N[C@@H](CC(N)=O)C(=O)N[C@H](C(=O)N[C@@H](CC(N)=O)C(=O)N[C@@H](CCCCN)C(=O)NCC(=O)N[C@@H](CCCCN)C(=O)N[C@@H](CS)C(=O)N[C@@H](CCC(=O)O)C(=O)N[C@@H](C)C(=O)N[C@@H](C)C(=O)N[C@@H](C)C(=O)N[C@@H](CCCCN)C(=O)N[C@@H](CCCCNC(=O)CCC(=O)OC1CCC2(C)C(=CCC3C2CCC2(C)C(C(C)CCCC(C)C)CCC32)C1)C(N)=O)C(C)C)[C@@H](C)CC)[C@@H](C)CC)C(C)C (stereo partly shown) [Positive polypeptide 4, reference compound] (Ac-IEQVNKKIEQSLKFIEKSDKLLENVNKGKCEAAAKK(X1)-NH2) | 10.25 Log10 copy number/gram of lung | 14525
